These are yes or no findings as the source states them, for the method shown. In cells and extracts the contact can be indirect. Some binding calls cover weakened binding; strength is not graded here.
Assays:
[1] = target: T1, CD63 (tetraspanin), murine (mouse (endogenous in melan-a, 4C, 4C11- and 4C11+ cells)) (UniProt P41731); assay: co-IP; membrane-enriched extracts of murine non-tumorigenic melan-a melanocytes; immunoprecipitated with anti-CD63 on protein G-agarose, 4°C; Western blot with anti-β1-integrin
T1 sequence: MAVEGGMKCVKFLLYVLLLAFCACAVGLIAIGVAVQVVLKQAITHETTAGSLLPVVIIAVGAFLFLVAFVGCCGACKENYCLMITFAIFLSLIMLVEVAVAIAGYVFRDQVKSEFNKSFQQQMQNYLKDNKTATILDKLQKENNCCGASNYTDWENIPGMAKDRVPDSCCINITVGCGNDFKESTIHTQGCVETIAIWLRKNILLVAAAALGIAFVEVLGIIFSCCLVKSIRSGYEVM

Chains of the proteins cited; added tags and fusions are not shown. Lines headed by an entry give the natural chain unless they say otherwise; changes in a name come on top. Residues count along the entry.
UniProt P09055, residues 21-798: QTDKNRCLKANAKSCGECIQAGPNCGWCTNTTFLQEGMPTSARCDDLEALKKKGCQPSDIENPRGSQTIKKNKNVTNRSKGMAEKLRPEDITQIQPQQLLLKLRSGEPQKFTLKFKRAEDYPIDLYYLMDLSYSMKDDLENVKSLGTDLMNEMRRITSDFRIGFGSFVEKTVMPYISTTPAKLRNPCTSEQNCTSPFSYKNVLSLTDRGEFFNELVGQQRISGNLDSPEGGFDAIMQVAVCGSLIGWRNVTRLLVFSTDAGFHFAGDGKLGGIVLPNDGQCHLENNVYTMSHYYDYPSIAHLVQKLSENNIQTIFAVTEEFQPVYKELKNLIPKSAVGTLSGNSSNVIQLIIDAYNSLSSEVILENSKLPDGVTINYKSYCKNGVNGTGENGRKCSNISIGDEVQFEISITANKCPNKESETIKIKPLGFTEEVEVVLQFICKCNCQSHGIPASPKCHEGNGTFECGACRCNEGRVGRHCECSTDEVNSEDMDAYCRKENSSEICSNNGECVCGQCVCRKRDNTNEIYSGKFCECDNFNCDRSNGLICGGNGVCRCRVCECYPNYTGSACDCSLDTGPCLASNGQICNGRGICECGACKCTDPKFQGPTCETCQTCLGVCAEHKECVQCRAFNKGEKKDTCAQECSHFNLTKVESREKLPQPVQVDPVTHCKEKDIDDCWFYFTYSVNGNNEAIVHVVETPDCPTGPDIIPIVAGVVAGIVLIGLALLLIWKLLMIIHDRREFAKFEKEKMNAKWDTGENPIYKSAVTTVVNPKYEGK
UniProt P01033, residues 24-207: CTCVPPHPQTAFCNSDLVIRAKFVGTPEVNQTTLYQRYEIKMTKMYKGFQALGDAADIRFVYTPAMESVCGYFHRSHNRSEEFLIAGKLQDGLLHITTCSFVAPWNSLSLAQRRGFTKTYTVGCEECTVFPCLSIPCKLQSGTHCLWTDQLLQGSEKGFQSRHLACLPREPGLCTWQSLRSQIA
UniProt P12032, residues 25-205: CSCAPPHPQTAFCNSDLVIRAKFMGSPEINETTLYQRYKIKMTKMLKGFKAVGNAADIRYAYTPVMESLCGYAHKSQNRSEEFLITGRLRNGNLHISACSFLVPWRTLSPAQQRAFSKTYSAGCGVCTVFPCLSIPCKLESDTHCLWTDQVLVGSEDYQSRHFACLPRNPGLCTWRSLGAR
UniProt P05556: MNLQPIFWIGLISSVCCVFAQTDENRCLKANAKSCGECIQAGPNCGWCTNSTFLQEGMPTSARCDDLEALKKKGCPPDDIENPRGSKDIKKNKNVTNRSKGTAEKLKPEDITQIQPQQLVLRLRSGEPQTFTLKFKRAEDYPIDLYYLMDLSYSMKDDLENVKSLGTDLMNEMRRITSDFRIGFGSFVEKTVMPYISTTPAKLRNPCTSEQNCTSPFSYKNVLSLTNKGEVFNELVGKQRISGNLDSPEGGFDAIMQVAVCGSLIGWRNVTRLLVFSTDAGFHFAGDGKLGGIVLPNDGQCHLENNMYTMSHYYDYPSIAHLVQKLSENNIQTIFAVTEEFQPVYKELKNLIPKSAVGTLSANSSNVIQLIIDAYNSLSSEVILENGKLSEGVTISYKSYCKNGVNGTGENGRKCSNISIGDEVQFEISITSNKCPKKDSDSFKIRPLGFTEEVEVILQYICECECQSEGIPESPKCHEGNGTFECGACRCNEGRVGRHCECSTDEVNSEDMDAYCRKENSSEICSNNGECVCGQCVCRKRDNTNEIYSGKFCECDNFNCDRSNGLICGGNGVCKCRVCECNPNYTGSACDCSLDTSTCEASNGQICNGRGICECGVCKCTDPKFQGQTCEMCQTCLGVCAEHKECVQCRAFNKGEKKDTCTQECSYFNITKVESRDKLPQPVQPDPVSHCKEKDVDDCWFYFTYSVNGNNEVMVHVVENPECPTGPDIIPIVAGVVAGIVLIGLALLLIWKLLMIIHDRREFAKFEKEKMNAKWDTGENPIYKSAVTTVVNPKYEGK

[2] = target: T1, CD63 (tetraspanin), murine (mouse (endogenous in melan-a, 4C, 4C11- and 4C11+ cells)); assay: co-IP; membrane-enriched extracts of murine pre-malignant 4C melanocytes; immunoprecipitated with anti-β1-integrin or anti-CD63 on protein G-agarose, 4°C; Western blot with anti-Timp1 or anti-β1-integrin
[3] = target: T1, CD63 (tetraspanin), murine (mouse (endogenous in melan-a, 4C, 4C11- and 4C11+ cells)); assay: co-IP; membrane-enriched extracts of murine tumorigenic 4C11- and 4C11+ melanoma cells; immunoprecipitated with anti-β1-integrin or anti-CD63 on protein G-agarose, 4°C; Western blot with anti-Timp1 or anti-β1-integrin
[4] = target: β1-integrin, murine (mouse (endogenous in melan-a, 4C, 4C11- and 4C11+ cells)) (UniProt P09055); assay: as above
[5] = target: β1-integrin, murine (mouse (endogenous in melan-a, 4C, 4C11- and 4C11+ cells)) (UniProt P09055); assay: condition: only in extracts of pre-malignant 4C melanocytes; co-IP; membrane-enriched extracts of murine pre-malignant 4C melanocytes; immunoprecipitated with anti-β1-integrin or anti-CD63 on protein G-agarose, 4°C; Western blot with anti-Timp1 or anti-β1-integrin
[6] = target: TIMP1, human (human (endogenous in MP#2, Mel2, Mel3 and Mel14 cells)) (UniProt P01033); assay: co-IP; membrane-enriched extracts of human metastatic melanoma cells Mel2, Mel3 and Mel14; immunoprecipitated with anti-TIMP1 on protein G-agarose, 4°C; Western blot with anti-β1-integrin
[7] = target: TIMP1, human (human (endogenous in MP#2, Mel2, Mel3 and Mel14 cells)) (UniProt P01033); assay: condition: only in extracts of primary human melanocytes MP#2; co-IP; membrane-enriched extracts of primary human melanocytes MP#2; immunoprecipitated with anti-TIMP1 on protein G-agarose, 4°C; Western blot with anti-β1-integrin

binding [1]	binding [2]	binding [3]	binding [4]	binding [5]	binding [6]	binding [7]	Substance
binds weakly	binds	binds					β1-integrin, murine (from UniProt P09055 21-798) (receptor)
	binds	binds	binds	no binding			Timp1 (tissue inhibitor of metalloproteinases 1), murine (from UniProt P12032 25-205)
					binds	no binding	β1-integrin, human (from UniProt P05556 21-798) (receptor)

— paper PMC3635912
